Inconclusive results, whose numbers are uncertain, are shown with a selection of clear calls. For part of these data: Potencies of inconclusive entries are left out as doubtful fits. Activity calls are given as the source filed them. Unless noted, the call rests on the fitted dose curve; in most records, active means well fitted curve in the direction sought with a large enough effect; inconclusive means small, poorly fitted or top-dose-only effect, or another doubt; inactive means no such curve, though single readings can be large; an effect the other way counts as inactive or inconclusive.
Tests used:
[1] = qHTS of pediatric cancer cell lines to identify multiple opportunities for drug repurposing: Primary screen for SJ-GBM2 cells (AID 1347091)
In short: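 Cell viability, CellTiter-Glo luminescence; 500-1,000 cells/well, 8- or 11-point titration, 48 h compound exposure at 37 degrees C, 5% CO2. Controls: DMSO neutral, bortezomib 2.3 µM final as positive.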

[2] = qHTS of pediatric cancer cell lines to identify multiple opportunities for drug repurposing: Primary screen for BT-37 cells (AID 1347094)
In short: (§1)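 Following a 5-hour attachment period, cells at 500-1,000/well received compounds and were cultured for 48 hours. CellTiter-Glo was added and luminescence read to estimate viable, metabolically active cells.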

[3] = qHTS of pediatric cancer cell lines to identify multiple opportunities for drug repurposing: Primary screen for Saos-2 cells (AID 1347097); settings: Saos-2 viability, CellTiter-Glo ATP luminescence, 48 h; activity change, negative = cytotoxic: at 46 µM (top of the series); further: potency means the concentration at half of the fitted maximal effect; nearly all actives have a fitted effect of over 40% in size
In short: as §1

[4] = qHTS of pediatric cancer cell lines to identify multiple opportunities for drug repurposing: Primary screen for RD cells (AID 1347104); further: nearly all actives have a fitted effect of over 55% in size
In short: as §1

[5] = target: Cytochrome P450 2D6 (Homo sapiens) (UniProt P10635); assay: Cytochrome P450 family 2 subfamily D member 6 (CYP2D6) small molecule antagonists: luciferase biochemical (cell-free) qHTS assay (AID 1645840; active means well fitted curve in the direction sought with a large enough effect in the repeat runs; inconclusive means weak or mixed curves; inactive means no such curve, though single readings can be large; an effect the other way counts as inactive or inconclusive; further: nearly all actives have a fitted effect of over 55% in size)
In short: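 P450-Glo luminescent screen: recombinant CYP2D6 enzyme–proluciferin substrate mix preincubated with compound 10 min at room temperature, then NADPH regeneration added for 1 h at room temperature. Detection reagent added for 20 min; luciferin light read as relative luminescence units.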

HeLa = assay: Primary qHTS to identify gynecologic anti-cancer compounds using libraries of approved drugs and bioactive compounds (AID 1345084); settings: Gynecologic cancer cell panel viability, ATPlite luminescence, 48 h; series mostly up to 57.5 µM; further: nearly all actives have a fitted effect of over 55% in size; further: potency means the concentration at half of the fitted maximal effect
In short: (§2)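 Luminescence from the ATPlite ATP-monitoring reagent indicates viable cell number; lower signal means cytotoxicity. Cells received compound 16 h after seeding and were exposed for 48 h across five concentrations.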

Hek293T = assay: as above; settings: Gynecologic cancer cell panel viability, ATPlite luminescence, 48 h, control line for the selectivity index; series mostly up to 57.5 µM
In short: as §2

SKOV3 = assay: as above; settings: Gynecologic cancer cell panel viability, ATPlite luminescence, 48 h; series mostly up to 57.5 µM
In short: as §2

Tov-21-G = assay: as above; settings: Gynecologic cancer cell panel viability, ATPlite luminescence, 48 h; series mostly up to 57.5 µM
In short: as §2

[6] = P-glycoprotein substrates identified in KB-8-5-11 adenocarcinoma cell line, qHTS therapeutic library screen (AID 1346987); settings: activity change, negative = cytotoxicity: at 44.5 µM (top of the series); further: nearly all actives have a fitted effect of over 65% in size
In short: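 P-gp-mediated resistance screen: KB-8-5-11 cells treated 72 h with compounds in dose-response. CellTiter-Glo viability.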

[7] = tested on: Zika virus NS2B-NS3 protease (unlinked complex); assay: Primary screen GU Rhodamine qHTS for Zika virus inhibitors: Unlinked NS2B-NS3 protease assay (AID 1347159); settings: Recombinant ZIKV NS2B-NS3 protease, Rhodamine110 substrate fluorescence; series mostly up to 107 µM; further: potency means the concentration at half of the fitted maximal effect; nearly all actives have a fitted effect of over 60% in size
In short: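 A qHTS format was used, with compound concentrations ranging up to 114 microM. Each compound was preincubated with 25 nM NS2B-NS3 protease, and the substrate was then added at 1.5 microM. Curves were fitted with a 4-parameter Hill model.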

[8] = tested on: Zika virus NS2B-NS3 protease (linked construct); assay: Primary screen NINDS Rhodamine qHTS for Zika virus inhibitors (AID 1347160); further: nearly all actives have a fitted effect of over 55% in size
In short: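 Kinetic fluorescence (Ex 480 nm, Em 540 nm) over 15 min with 1.5 microM Rhodamine110 peptide and 25 nM linked protease.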

[9] = target: Calcium and integrin-binding protein 1 (Homo sapiens) (UniProt Q99828); assay: Primary qHTS for Identification of Calcium Integrin Binding Protein 1 (CIB1) Competitor (AID 1508620); further: potency means the concentration at half of the fitted maximal effect
In short: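 CIB1-GST (1 uM final) and compound incubated 15 min at room temperature before adding FITC-alphaIIb peptide tracer (100 nM final). Competition for binding read by fluorescence polarization (ex 480, em 540) after another 15 min at room temperature.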

PA-1 = assay: Primary qHTS to identify gynecologic anti-cancer compounds using libraries of approved drugs and bioactive compounds (AID 1345084); settings: Gynecologic cancer cell panel viability, ATPlite luminescence, 48 h; series mostly up to 57.5 µM; further: nearly all actives have a fitted effect of over 55% in size; further: potency means the concentration at half of the fitted maximal effect
In short: as §2
Tags describe the fitted curve by direction and shape.

Sequence of UniProt Q99828 (Q99828 whole entry, looked up): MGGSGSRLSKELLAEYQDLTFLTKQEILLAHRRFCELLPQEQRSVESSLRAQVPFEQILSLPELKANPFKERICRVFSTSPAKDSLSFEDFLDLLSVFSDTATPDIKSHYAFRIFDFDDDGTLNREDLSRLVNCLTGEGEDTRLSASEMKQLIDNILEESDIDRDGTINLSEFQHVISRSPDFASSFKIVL
Sequence of UniProt P10635 (P10635 whole entry, looked up): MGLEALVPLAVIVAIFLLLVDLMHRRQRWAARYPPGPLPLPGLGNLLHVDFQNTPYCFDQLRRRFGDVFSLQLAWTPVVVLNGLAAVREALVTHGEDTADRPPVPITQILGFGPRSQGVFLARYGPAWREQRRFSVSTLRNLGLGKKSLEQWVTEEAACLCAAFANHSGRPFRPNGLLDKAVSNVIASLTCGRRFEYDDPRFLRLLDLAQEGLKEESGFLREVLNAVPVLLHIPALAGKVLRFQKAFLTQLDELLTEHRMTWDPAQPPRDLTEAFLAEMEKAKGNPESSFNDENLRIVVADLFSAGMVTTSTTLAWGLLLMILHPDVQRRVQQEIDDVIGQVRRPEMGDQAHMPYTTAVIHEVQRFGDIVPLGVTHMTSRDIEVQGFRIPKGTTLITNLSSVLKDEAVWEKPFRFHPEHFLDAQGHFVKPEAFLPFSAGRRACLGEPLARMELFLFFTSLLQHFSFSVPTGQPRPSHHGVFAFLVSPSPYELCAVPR

Question: Which Potency [1] does the source give for COCCc1ccccn1 here?
Answer: inactive

Question: What about the Potency [2] of the same compound?
Answer: inactive

Question: What about the Potency [3] of the same compound?
Answer: inconclusive [cytotoxic, single point]

Question: What about the Potency [4] of the same compound?
Answer: inactive

Question: And the Potency [5]?
Answer: inactive

Question: And the Potency (HeLa)?
Answer: inactive

Question: What about the Potency (Hek293T) of the same compound?
Answer: inactive

Question: And the Potency (SKOV3)?
Answer: inactive

Question: And the Potency (Tov-21-G)?
Answer: inactive

Question: What does the source list for O=C(O)CC1(O)C(=O)Nc2ccccc21 (stereo not given)?
Answer: Potency [6]: inactive; Potency [7]: inconclusive [inhibitor, full curve, poor fit]; Potency [8]: inactive; Potency [9]: inconclusive [inhibitor, partial curve, poor fit]; Potency (HeLa): inconclusive [cytotoxic, partial curve, poor fit]; Potency (PA-1): inactive
